# In PubChem BioAssay AID1030 (National Center for Advancing Translational Sciences (NCATS), 2008):
# About 16,000 (7.3%) of roughly 220,000 compounds were called active. This list was built around the results that the source calls inconclusive (neither active nor inactive); the mix of calls is not that of the screen. The call rests on the fitted dose curve; in most records, active means well fitted inhibition curve with a large enough effect (not every such curve was filed as active); inconclusive means small, poorly fitted or top-dose-only effect, or another doubt; inactive means no such curve, though single readings can be large or run the other way. No potency is given beside an inconclusive call; the fits are too rough.
# Biological target: Aldehyde dehydrogenase 1A1 (Homo sapiens) (UniProt P00352)
# Assay: qHTS Assay for Inhibitors of Aldehyde Dehydrogenase 1 (ALDH1A1);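 on activity, negative = inhibition: plate controls were no enzyme wells and a reference inhibitor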
# Details: Purified ALDH1A1, NADH fluorescence, propionaldehyde substrate; series mostly up to 75.3 µM; activity, negative = inhibition: at the top concentration
# Potency means the concentration at half of the fitted maximal effect; tags describe the fitted curve by direction and shape.
# Sequence of UniProt P00352 (P00352 whole entry, looked up): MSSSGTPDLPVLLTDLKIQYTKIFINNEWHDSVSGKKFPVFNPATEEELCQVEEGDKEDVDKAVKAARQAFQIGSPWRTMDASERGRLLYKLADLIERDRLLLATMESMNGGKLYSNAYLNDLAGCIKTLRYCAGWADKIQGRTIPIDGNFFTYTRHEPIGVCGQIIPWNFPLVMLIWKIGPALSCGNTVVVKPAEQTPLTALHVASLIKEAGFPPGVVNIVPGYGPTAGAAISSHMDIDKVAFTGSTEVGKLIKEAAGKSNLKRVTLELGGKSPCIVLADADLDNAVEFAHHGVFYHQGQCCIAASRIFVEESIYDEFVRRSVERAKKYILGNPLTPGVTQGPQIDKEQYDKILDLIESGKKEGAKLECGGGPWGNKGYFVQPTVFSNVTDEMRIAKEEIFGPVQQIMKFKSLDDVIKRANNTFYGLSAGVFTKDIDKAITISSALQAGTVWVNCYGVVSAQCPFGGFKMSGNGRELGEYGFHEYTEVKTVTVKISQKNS
Compound,Potency,"activity, negative = inhibition"
CC(C)(C)OC(=O)N[C@@H](Cc1ccccc1)c1nnc(S(=O)(=O)Cc2ccccc2)o1,"inconclusive [inhibitor, partial curve, poor fit]",–
O=C(Nc1ccc2c(c1)C(=O)N(CC1CCCO1)C2=O)c1ccccc1Br (stereo not drawn),"inconclusive [inhibitor, partial curve]",–
COCCn1c(SCC(=O)Nc2cccc(OC)c2)nc2c(oc3ccccc32)c1=O,"inconclusive [inhibitor, full curve]",–
CC(C)Cc1oc(C(=O)O)cc1CN,"inconclusive [inhibitor, single point]",–
C=CCOc1cccc(C2C(C(=O)c3ccco3)=C(O)C(=O)N2CCN(CC)CC)c1 (stereo not drawn),–,inactive: -6.48%
CCOCCCNC(=O)CN1C(=O)CSc2cc(S(=O)(=O)N3CCCCCC3)ccc21,active: 10 µM,–
O=C1c2cccc3cccc(c23)C(=O)N1CC1CCN(CC(O)COc2ccc3ccccc3c2)CC1 (stereo not drawn),"inconclusive [inhibitor, single point]",–
Cc1c(Cl)cccc1NC(=O)c1cccc(NC(=O)CCC(=O)O)c1,–,inactive: 3.63%
CC(C)NC(=O)c1cc(-c2ccc(Br)cc2)on1,"inconclusive [inhibitor, single point]",–
COC(=O)c1oc2ccc(OC)cc2c1N,"inconclusive [inhibitor, single point]",–
Cn1c(=O)cnc2cnc(Oc3ccccc3)nc21,"inconclusive [inhibitor, single point]",–
CC(=O)c1cc(-c2ccccc2)n(CCC(=O)NC2CCCCCCC2)c1C,"inconclusive [inhibitor, full curve]",–
Cc1ccc(NC(=O)CN(C)CC(=O)Nc2ccc(F)c(Cl)c2)cc1,"inconclusive [inhibitor, single point]",–
CCN1C(=O)c2cccc3c(NC(=O)C(C)(C)C)ccc1c23,"inconclusive [inhibitor, single point]",–
CCOC(=O)c1c(CN2CCN(c3ccccc3)CC2)oc2ccc(O)cc12,"inconclusive [inhibitor, single point]",–
CC1(C)Nc2ccccc2C(=O)N1NC(=O)c1ccccc1,"inconclusive [inhibitor, single point]",–
COC(=O)c1cc(NC(=O)C2CCCN(S(=O)(=O)c3c(C)n[nH]c3C)C2)cc(C(=O)OC)c1 (stereo not drawn),–,inactive: -2.78%
COc1cccc(C(=O)NCCC2=CCCCC2)c1OC,"inconclusive [inhibitor, single point]",–
O=C(Cc1ccc(Cl)cc1)NN1C(=O)c2ccccc2C1=O,–,inactive: 14.4%
CCOC(=O)c1c(C)c(C)n2c1NC(=O)C2,–,inactive: -7.35% [at 13.5 µM]
COc1ccc(OC)c(-n2nnnc2SCC(=O)Nc2ccc(C(=O)N3CCCCC3)cc2)c1,active: 1.41 µM,–
CCN(CCCNC(=O)CCn1c(=O)[nH]c2ccsc2c1=O)c1ccccc1,–,inactive: -8.83%

Compound,Potency,"activity, negative = inhibition"
Cc1cc(/C=N/Nc2nc(N3CCOCC3)nc(N3CCOCC3)n2)c(C)n1-c1ccccc1,"inconclusive [inhibitor, single point]",–
COc1cc(CC(=O)NCc2ccc3c(c2)OCO3)cc(OC)c1OC,"inconclusive [inhibitor, partial curve]",–
CC(=O)Nc1ccc(NC(=O)CSc2nnc(COc3ccccc3C)n2CC2CCCO2)cc1 (stereo not drawn),active: 10 µM,–
c1cn(-c2cc(-c3ccc4c(c3)OCO4)ncn2)cn1,"inconclusive [inhibitor, partial curve]",–
O=C(Cc1cccs1)Nc1cccc(-c2nnc(-c3ccco3)o2)c1,"inconclusive [inhibitor, partial curve]",–
O=C(O)c1cc([N+](=O)[O-])ccc1N1CCCCC1,"inconclusive [inhibitor, single point]",–
CCN1C(=O)c2cccc3c(NC(=O)c4ccc5c(c4)OCCO5)ccc1c23,"inconclusive [inhibitor, partial curve]",–
COC(=O)Cc1sc(-c2ccccn2)nc1-c1ccccc1,"inconclusive [inhibitor, partial curve]",–
COc1cccc(-c2nc(NCCN3CCOCC3)c3ccccc3n2)c1O,"inconclusive [inhibitor, single point]",–
COc1cc2c(cc1NC(=S)Nc1cccc(C(F)(F)F)c1)oc1ccccc12,"inconclusive [inhibitor, partial curve]",–
COc1cccc(C(c2nnnn2Cc2ccccc2)N2CCN(C(=O)c3ccco3)CC2)c1OC (stereo not drawn),"inconclusive [inhibitor, single point]",–
O=C(Nc1cccc(F)c1)c1ccc(S(=O)(=O)NCC2CCCO2)cc1 (stereo not drawn),"inconclusive [inhibitor, single point]",–
CCOc1ccccc1N1CC(C(=O)Nc2c(C)n(C)n(-c3ccccc3)c2=O)CC1=O (stereo not drawn),"inconclusive [inhibitor, single point]",–
CC(=O)c1cc(C#N)c(N2CC(C)OC(C)C2)nc1C (stereo not drawn),–,inactive: -5.66%
O=C(O)c1ccccc1,–,inactive: -1.39%
CCc1ccc(-c2cc(C(=O)Nn3cnnc3)c3ccccc3n2)cc1,"inconclusive [inhibitor, single point]",–
C#CCOCCOCCOCCNc1nc(N2CCN(C(=O)Cn3cc(CCCN=C(N)N)nn3)CC2)nc(N2CCN(C(=O)Cn3cc(CCCN=C(N)N)nn3)CC2)n1,"inconclusive [inhibitor, single point]",–
Cc1cccc(OC2(c3ccccc3)OC(=O)c3ccccc32)c1C (stereo not drawn),–,inactive: 6.67%
NCCC[C@@H](CC(=O)N[C@@H]1CCNC[C@H]1C(=O)N[C@H](CC(=O)N[C@@H](CCC(=O)O)CC(=O)O)Cc1ccccc1)NC(=O)C[C@H](CO)NC(=O)[C@@H]1CCCC[C@H]1N,–,inactive: 1.16%
COc1ccc(NC(=O)CSc2nncn2C)cc1OC,–,inactive: 10.1%
O=C(/C=C/c1ccc2c(c1)OCO2)N1CCOCC1,"inconclusive [inhibitor, single point]",–
